Results as given in patent US20260216242A1 (ALMAC DISCOVERY, published 2026).
Residue numbers refer to the chain shown, from its start. In names and notes the source's numbering stands.

T1: Human ALPPL2 (leucine zipper) (human)
T1 construct: Soluble human ALPPL2 fused to a disulphide stabilised leucine zipper and a His tag; The whole entry is the construct; also called hALPPL2; ALPG
T1 chain: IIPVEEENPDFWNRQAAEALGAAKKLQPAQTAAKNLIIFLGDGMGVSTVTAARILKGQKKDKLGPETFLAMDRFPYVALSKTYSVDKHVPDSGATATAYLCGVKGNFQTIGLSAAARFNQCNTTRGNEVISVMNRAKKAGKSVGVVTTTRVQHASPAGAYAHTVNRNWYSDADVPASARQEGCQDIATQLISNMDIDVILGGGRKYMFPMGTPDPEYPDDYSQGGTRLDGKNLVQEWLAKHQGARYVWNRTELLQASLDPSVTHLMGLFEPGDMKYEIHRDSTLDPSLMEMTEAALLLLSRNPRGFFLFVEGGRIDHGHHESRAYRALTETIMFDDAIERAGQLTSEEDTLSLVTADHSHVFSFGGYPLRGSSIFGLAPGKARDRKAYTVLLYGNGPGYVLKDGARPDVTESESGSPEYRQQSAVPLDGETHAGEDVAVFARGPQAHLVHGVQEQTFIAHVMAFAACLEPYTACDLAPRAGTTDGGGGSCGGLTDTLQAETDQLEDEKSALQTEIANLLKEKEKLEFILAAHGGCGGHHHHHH

T2: Human ALPP (leucine zipper) (human)
T2 construct: Soluble human ALPP fused to a disulphide stabilised leucine zipper and a His tag; The whole entry is the construct; also called hALPP; PLAP
T2 chain: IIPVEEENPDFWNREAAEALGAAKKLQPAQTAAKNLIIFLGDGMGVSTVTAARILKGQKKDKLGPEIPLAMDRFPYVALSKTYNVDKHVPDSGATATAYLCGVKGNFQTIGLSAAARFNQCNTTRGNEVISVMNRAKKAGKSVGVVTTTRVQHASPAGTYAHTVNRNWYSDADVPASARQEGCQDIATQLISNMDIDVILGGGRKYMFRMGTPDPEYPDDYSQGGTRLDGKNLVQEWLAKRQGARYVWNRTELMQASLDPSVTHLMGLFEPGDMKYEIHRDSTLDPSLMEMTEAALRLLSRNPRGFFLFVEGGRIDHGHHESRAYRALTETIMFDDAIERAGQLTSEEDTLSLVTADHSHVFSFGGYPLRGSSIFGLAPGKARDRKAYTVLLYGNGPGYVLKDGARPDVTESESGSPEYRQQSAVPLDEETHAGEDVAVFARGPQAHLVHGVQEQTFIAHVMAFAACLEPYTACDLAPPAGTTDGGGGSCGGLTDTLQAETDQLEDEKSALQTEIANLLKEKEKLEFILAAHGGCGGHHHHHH

T3: ALPI His (human, UniProt P09923 20-503)
T3 construct: Soluble ALPI with a C-terminal G4S-His6; also called hALPI; ALPI His homodimer
T3 sequence: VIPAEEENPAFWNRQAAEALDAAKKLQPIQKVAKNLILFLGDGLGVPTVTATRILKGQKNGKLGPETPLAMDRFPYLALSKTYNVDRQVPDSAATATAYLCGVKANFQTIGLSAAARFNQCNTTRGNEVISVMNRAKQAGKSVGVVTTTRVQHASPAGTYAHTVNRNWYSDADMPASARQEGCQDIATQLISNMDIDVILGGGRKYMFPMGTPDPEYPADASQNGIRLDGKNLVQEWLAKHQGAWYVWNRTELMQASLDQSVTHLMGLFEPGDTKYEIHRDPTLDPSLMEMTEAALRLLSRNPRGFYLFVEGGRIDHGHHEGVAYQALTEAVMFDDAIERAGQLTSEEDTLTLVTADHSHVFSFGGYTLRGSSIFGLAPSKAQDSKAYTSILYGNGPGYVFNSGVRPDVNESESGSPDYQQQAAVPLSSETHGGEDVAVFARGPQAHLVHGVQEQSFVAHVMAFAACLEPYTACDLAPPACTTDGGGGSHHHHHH

T4: Human ALPL (leucine zipper) (human)
T4 construct: Soluble human ALPL fused to a disulphide stabilised leucine zipper and a His tag; also called hALPL; TNAP
T4 chain: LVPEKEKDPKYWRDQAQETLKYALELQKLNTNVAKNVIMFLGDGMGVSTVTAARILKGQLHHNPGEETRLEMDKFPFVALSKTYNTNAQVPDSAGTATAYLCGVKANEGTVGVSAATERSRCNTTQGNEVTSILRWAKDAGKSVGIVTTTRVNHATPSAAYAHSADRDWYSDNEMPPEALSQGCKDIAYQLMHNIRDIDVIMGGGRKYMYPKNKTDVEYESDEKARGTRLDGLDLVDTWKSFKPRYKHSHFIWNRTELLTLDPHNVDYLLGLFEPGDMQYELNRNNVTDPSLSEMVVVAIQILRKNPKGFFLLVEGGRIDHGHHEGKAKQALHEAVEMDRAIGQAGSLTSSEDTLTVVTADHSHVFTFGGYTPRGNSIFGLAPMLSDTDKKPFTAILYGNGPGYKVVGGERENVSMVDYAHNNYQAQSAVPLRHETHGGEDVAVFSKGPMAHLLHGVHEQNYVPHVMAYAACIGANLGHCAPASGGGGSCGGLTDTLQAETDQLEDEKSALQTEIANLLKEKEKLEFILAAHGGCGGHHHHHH

B1: A06 E10-hFc (S239C), [G4S]3 linkers (Fc fusion)
chain 1: QVHLVESGGGLVQAGGSLRLSCAASGRTFLSMGWFRQAPGKEREFVAAISWTGGSTGYADSVKGRFTISRESDKETMYLQMNSLKPEDTAVYYCAARGDVYYGGDDATRYKYWGQGTQVTVSSGGGGSGGGGSGGGGS[human IgG1 Fc with C220S S239C T366Y (EU numbers) not spelt out]
chain 2: QVQLVESGGGLVQAGGSLRLSCAVSGRALSDYNIGWFRQAPGKEREFVARKTWDGSSTRYDDSVKGRFTVSIEDAKNTAYLQMSSLKTEDTAVYYCAAGRYSRARGWEYDYWGQGTQVTVSSGGGGSGGGGSGGGGS[human IgG1 Fc with C220S S239C Y407T (EU numbers) not spelt out]
notes: Biparatopic knobs-into-holes heterodimer; also called #606
B2: A06 F05-hFc (S239C), [G4S]3 linkers (Fc fusion)
chain 1: B1 chain 1
chain 2: B1 chain 2 with V24A, L29F, S30G, K51R, E73D, D74N, S84N, A104V
notes: Biparatopic knobs-into-holes heterodimer; also called #611
B3: D10 E06-hFc (S239C), [G4S]3 linkers (Fc fusion)
chain 1: QVQLVESGGGLVQPGGSLRLSCAASGSIFSVNTMGWYRQAPGKQRDLVAVATSGGTIHYADSVKGRFTISRDNAKNTVYLQMNSLKPEDTAVYYCNLVVPYGMIAGDHDYWGQGTKVTVSSGGGGSGGGGSGGGGS[human IgG1 Fc with C220S S239C T366Y (EU numbers) not spelt out]
chain 2: QVHLVESGGGLVQAGGSLRLSCAASRRSFSEYAMGWFRQAPGKEREFVAAIGWSGVIEYADSVKGRFTISRDNAKDTVYLQMNSLKPEDTAVYYCAAGLGIRVVSQTPAYWGQGTQVTVSSGGGGSGGGGSGGGGS[human IgG1 Fc with C220S S239C Y407T (EU numbers) not spelt out]
notes: Biparatopic knobs-into-holes heterodimer; also called #610
B4: A06 E06-hFc (S239C), [G4S]3 linkers (Fc fusion)
chain 1: B1 chain 1
chain 2: B3 chain 2
notes: Biparatopic knobs-into-holes heterodimer
B5: D10 E10-hFc (S239C), [G4S]3 linkers (Fc fusion)
chain 1: B3 chain 1
chain 2: B1 chain 2
notes: Biparatopic knobs-into-holes heterodimer; also called #607
B6: D10 F05-hFc (S239C), [G4S]3 linkers (Fc fusion)
chain 1: B3 chain 1
chain 2: B1 chain 2 with V24A, L29F, S30G, K51R, E73D, D74N, S84N, A104V
notes: Biparatopic knobs-into-holes heterodimer; also called #608

Target: T1, Human ALPPL2 (leucine zipper)
Assay: BLI, KD 1:1 (Fc fusion captured on AHC sensor)
Description: (§1) Binding kinetics were determined using the Biolayer Interferometry (BLI) Octet K2 or R4 system (Sartorius). […] For KD apparent measurements, the ALPP proteins were immobilised in sodium acetate pH5 buffer to AR2G sensors using amine coupling. To measure 1:1 interactions, AHC biosensors were used to immobilise Fc-fused proteins. All assays were conducted in HBS-EP with a plate temperature of 25° C. Ka (M⁻¹s⁻¹), Kd (s⁻¹) and KD (nM) values were determined using Octet Data Analysis High Throughput software (Sartorius) for Biolayer Interferometry.

Row | Kd [nM] | koff [s⁻¹] | kon [M⁻¹ s⁻¹] | Binder
1 | < 0.01 | < 1e-07 | 624000 | B1
2 | < 0.01 | < 1e-07 | 600000 | B2
3 | < 0.01 | < 1e-07 | 712000 | B3
4 | < 0.01 | < 1e-07 | 689000 | B4
5 | < 0.01 | < 1e-07 | 678000 | B5
6 | < 0.01 | < 1e-07 | 442000 | B6

Target: T2, Human ALPP (leucine zipper)
Assay: BLI, KD 1:1 (Fc fusion captured on AHC sensor)
Description: as §1

Row | Kd [nM] | koff [s⁻¹] | kon [M⁻¹ s⁻¹] | Binder
7 | < 0.01 | < 1e-07 | 452000 | B1
8 | < 0.01 | < 1e-07 | 398000 | B2
9 | < 0.01 | < 1e-07 | 494000 | B3
10 | < 0.01 | < 1e-07 | 450000 | B4
11 | < 0.01 | < 1e-07 | 445000 | B5
12 | < 0.01 | < 1e-07 | 389000 | B6

Target: T3, ALPI His
Assay: BLI
Description: as §1

Row | binding result | Binder
13 | no binding | B1
14 | no binding | B2
15 | no binding | B3
16 | no binding | B4
17 | no binding | B5
18 | no binding | B6

Target: T4, Human ALPL (leucine zipper)
Assay: BLI
Description: as §1

Row | binding result | Binder
19 | no binding | B1
20 | no binding | B2
21 | no binding | B3
22 | no binding | B4
23 | no binding | B5
24 | no binding | B6

Target: T1, Human ALPPL2 (leucine zipper)
Assay: BLI, KD app (antigen immobilised on AR2G sensor)
Description: as §1

Row | Kd [nM] | koff [s⁻¹] | kon [M⁻¹ s⁻¹] | Binder
25 | 0.138 | 4.91e-05 | 356000 | B1
26 | 0.272 | 0.000144 | 531000 | B2
27 | 0.192 | 6.36e-05 | 331000 | B3
28 |  | 3.74e-05 | 434000 | B4
29 | 0.286 | 7.64e-05 | 268000 | B5
30 | 0.236 | 0.000144 | 609000 | B6

Target: T2, Human ALPP (leucine zipper)
Assay: BLI, KD app (antigen immobilised on AR2G sensor)
Description: as §1

Row | Kd [nM] | koff [s⁻¹] | kon [M⁻¹ s⁻¹] | Binder
31 | < 0.01 | < 1e-07 | 474000 | B1
32 | 0.0204 | 7.33e-06 | 359000 | B2
33 | < 0.01 | < 1e-07 | 356000 | B3
34 | < 0.01 | < 1e-07 | 443000 | B4
35 | < 0.01 | < 1e-07 | 402000 | B5
36 | 0.014 | 4.82e-06 | 342000 | B6
